# The list shows a part of the results.
# Target: T1, MBP-FoxP1dN (Mus musculus, UniProt P58462 326-579)
# T1 sequence: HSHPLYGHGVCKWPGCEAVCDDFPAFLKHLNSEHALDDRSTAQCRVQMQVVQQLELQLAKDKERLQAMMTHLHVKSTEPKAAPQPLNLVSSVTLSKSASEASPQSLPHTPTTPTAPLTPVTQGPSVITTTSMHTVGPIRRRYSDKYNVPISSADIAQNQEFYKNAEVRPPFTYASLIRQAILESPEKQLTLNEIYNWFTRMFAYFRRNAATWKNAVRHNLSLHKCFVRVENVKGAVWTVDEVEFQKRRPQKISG
# Assay: PD-seq (MBP pull-down with sequencing); 20 mM Tris-HCl pH 7.5, 100 mM NaCl, 1.5 mM MgCl2, 0.4 uM protein, 0.1 uM dsDNA library, 30 min, room temperature, amylose pull-down; high values mean tight binding
# Settings: protein: recombinant; tags: His6-MBP; chain copies: 2; dsDNA, one strand shown
# In short: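 Mouse FoxP3 or FoxP1 fragment lacking the N-terminus, His6-MBP-tagged and expressed in E. coli, was incubated at 0.4 µM with 0.1 µM Klenow-filled degenerate double-stranded DNA library for 30 min at room temperature in Tris pH 7.5 buffer with NaCl and MgCl2. Complexes captured on amylose resin were washed three times and their DNA sequenced on Illumina. Binding is reads-per-million enrichment of pull-down over input, replicates pooled.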
row,Sequence,binding signal
1,GATGATTGTTCTCCCAGCTGATGAATTAGACCAGTCGAGTAAACAAATTTTCCTAATCTTTCTGTTCAAGCGCCATCTAC,0.827 RPM ratio (pull-down/input)
2,GATGATTGTTCTCCCAGCTGATGAATTTCAGCCGTCGAGTAAACAAATTTTCCTAATCTTTCTGTTCAAGCGCCATCTAC,0.815 RPM ratio (pull-down/input)
3,GATGATTGTTCTCCCAGCTGATGAATTGGTGTAATCGAGTAAACAAATTTTCCTAATCTTTCTGTTCAAGCGCCATCTAC,1.49 RPM ratio (pull-down/input)
4,GATGATTGTTCTCCCAGCTGATGAATTACCCAGGTCGAGTAAACAAATTTTCCTAATCTTTCTGTTCAAGCGCCATCTAC,0.849 RPM ratio (pull-down/input)
5,GATGATTGTTCTCCCAGCTGATGAATTCGCCACGTCGAGTAAACAAATTTTCCTAATCTTTCTGTTCAAGCGCCATCTAC,0.909 RPM ratio (pull-down/input)
6,GATGATTGTTCTCCCAGCTGATGAATTAACCCGCTCGAGTAAACAAATTTTCCTAATCTTTCTGTTCAAGCGCCATCTAC,0.814 RPM ratio (pull-down/input)
7,GATGATTGTTCTCCCAGCTGATGAATTGCTACCTTCGAGTAAACAAATTTTCCTAATCTTTCTGTTCAAGCGCCATCTAC,1.07 RPM ratio (pull-down/input)
8,GATGATTGTTCTCCCAGCTGATGAATTTAAAGTGTCGAGTAAACAAATTTTCCTAATCTTTCTGTTCAAGCGCCATCTAC,0.935 RPM ratio (pull-down/input)
9,GATGATTGTTCTCCCAGCTGATGAATTAGGGTGCTCGAGTAAACAAATTTTCCTAATCTTTCTGTTCAAGCGCCATCTAC,0.798 RPM ratio (pull-down/input)
10,GATGATTGTTCTCCCAGCTGATGAATTGCTACGTTCGAGTAAACAAATTTTCCTAATCTTTCTGTTCAAGCGCCATCTAC,1.19 RPM ratio (pull-down/input)
11,GATGATTGTTCTCCCAGCTGATGAATTCCACCATTCGAGTAAACAAATTTTCCTAATCTTTCTGTTCAAGCGCCATCTAC,0.908 RPM ratio (pull-down/input)
12,GATGATTGTTCTCCCAGCTGATGAATTGGGCAGATCGAGTAAACAAATTTTCCTAATCTTTCTGTTCAAGCGCCATCTAC,0.83 RPM ratio (pull-down/input)
13,GATGATTGTTCTCCCAGCTGATGAATTGCTCCGCTCGAGTAAACAAATTTTCCTAATCTTTCTGTTCAAGCGCCATCTAC,0.917 RPM ratio (pull-down/input)
14,GATGATTGTTCTCCCAGCTGATGAATTGCTTTCGTCGAGTAAACAAATTTTCCTAATCTTTCTGTTCAAGCGCCATCTAC,1.12 RPM ratio (pull-down/input)
15,GATGATTGTTCTCCCAGCTGATGAATTAAAAGTGTCGAGTAAACAAATTTTCCTAATCTTTCTGTTCAAGCGCCATCTAC,0.971 RPM ratio (pull-down/input)
16,GATGATTGTTCTCCCAGCTGATGAATTTATAATATCGAGTAAACAAATTTTCCTAATCTTTCTGTTCAAGCGCCATCTAC,1.31 RPM ratio (pull-down/input)
17,GATGATTGTTCTCCCAGCTGATGAATTCCCGATATCGAGTAAACAAATTTTCCTAATCTTTCTGTTCAAGCGCCATCTAC,0.844 RPM ratio (pull-down/input)
18,GATGATTGTTCTCCCAGCTGATGAATTCGCGCGATCGAGTAAACAAATTTTCCTAATCTTTCTGTTCAAGCGCCATCTAC,0.886 RPM ratio (pull-down/input)
19,GATGATTGTTCTCCCAGCTGATGAATTAAGCTACTCGAGTAAACAAATTTTCCTAATCTTTCTGTTCAAGCGCCATCTAC,0.917 RPM ratio (pull-down/input)
20,GATGATTGTTCTCCCAGCTGATGAATTAGGATCATCGAGTAAACAAATTTTCCTAATCTTTCTGTTCAAGCGCCATCTAC,0.974 RPM ratio (pull-down/input)
21,GATGATTGTTCTCCCAGCTGATGAATTTTTACCGTCGAGTAAACAAATTTTCCTAATCTTTCTGTTCAAGCGCCATCTAC,0.917 RPM ratio (pull-down/input)

row,Sequence,binding signal
1,GATGATTGTTCTCCCAGCTGATGAATTGATCCGATCGAGTAAACAAATTTTCCTAATCTTTCTGTTCAAGCGCCATCTAC,0.857 RPM ratio (pull-down/input)
2,GATGATTGTTCTCCCAGCTGATGAATTGTGATGTTCGAGTAAACAAATTTTCCTAATCTTTCTGTTCAAGCGCCATCTAC,1.59 RPM ratio (pull-down/input)
3,GATGATTGTTCTCCCAGCTGATGAATTAGGATATTCGAGTAAACAAATTTTCCTAATCTTTCTGTTCAAGCGCCATCTAC,0.917 RPM ratio (pull-down/input)
4,GATGATTGTTCTCCCAGCTGATGAATTACTCAATTCGAGTAAACAAATTTTCCTAATCTTTCTGTTCAAGCGCCATCTAC,1.25 RPM ratio (pull-down/input)
5,GATGATTGTTCTCCCAGCTGATGAATTATTAGCGTCGAGTAAACAAATTTTCCTAATCTTTCTGTTCAAGCGCCATCTAC,1.28 RPM ratio (pull-down/input)
6,GATGATTGTTCTCCCAGCTGATGAATTTCCCGTATCGAGTAAACAAATTTTCCTAATCTTTCTGTTCAAGCGCCATCTAC,0.953 RPM ratio (pull-down/input)
7,GATGATTGTTCTCCCAGCTGATGAATTACAAATATCGAGTAAACAAATTTTCCTAATCTTTCTGTTCAAGCGCCATCTAC,2.21 RPM ratio (pull-down/input)
8,GATGATTGTTCTCCCAGCTGATGAATTTACCGACTCGAGTAAACAAATTTTCCTAATCTTTCTGTTCAAGCGCCATCTAC,1.08 RPM ratio (pull-down/input)
9,GATGATTGTTCTCCCAGCTGATGAATTTATGCACTCGAGTAAACAAATTTTCCTAATCTTTCTGTTCAAGCGCCATCTAC,1.19 RPM ratio (pull-down/input)
10,GATGATTGTTCTCCCAGCTGATGAATTATCCCTATCGAGTAAACAAATTTTCCTAATCTTTCTGTTCAAGCGCCATCTAC,1.05 RPM ratio (pull-down/input)
11,GATGATTGTTCTCCCAGCTGATGAATTGACGTTTTCGAGTAAACAAATTTTCCTAATCTTTCTGTTCAAGCGCCATCTAC,1.24 RPM ratio (pull-down/input)
12,GATGATTGTTCTCCCAGCTGATGAATTTCAACTATCGAGTAAACAAATTTTCCTAATCTTTCTGTTCAAGCGCCATCTAC,0.987 RPM ratio (pull-down/input)
13,GATGATTGTTCTCCCAGCTGATGAATTCCTTTCCTCGAGTAAACAAATTTTCCTAATCTTTCTGTTCAAGCGCCATCTAC,0.761 RPM ratio (pull-down/input)
14,GATGATTGTTCTCCCAGCTGATGAATTGATCGTTTCGAGTAAACAAATTTTCCTAATCTTTCTGTTCAAGCGCCATCTAC,1.02 RPM ratio (pull-down/input)
15,GATGATTGTTCTCCCAGCTGATGAATTTGTTTGGTCGAGTAAACAAATTTTCCTAATCTTTCTGTTCAAGCGCCATCTAC,2.1 RPM ratio (pull-down/input)
16,GATGATTGTTCTCCCAGCTGATGAATTTCTCCTATCGAGTAAACAAATTTTCCTAATCTTTCTGTTCAAGCGCCATCTAC,0.938 RPM ratio (pull-down/input)
17,GATGATTGTTCTCCCAGCTGATGAATTCACCCGATCGAGTAAACAAATTTTCCTAATCTTTCTGTTCAAGCGCCATCTAC,0.813 RPM ratio (pull-down/input)
18,GATGATTGTTCTCCCAGCTGATGAATTATCACCCTCGAGTAAACAAATTTTCCTAATCTTTCTGTTCAAGCGCCATCTAC,0.93 RPM ratio (pull-down/input)
19,GATGATTGTTCTCCCAGCTGATGAATTCGTCATATCGAGTAAACAAATTTTCCTAATCTTTCTGTTCAAGCGCCATCTAC,0.964 RPM ratio (pull-down/input)
20,GATGATTGTTCTCCCAGCTGATGAATTGCGATTGTCGAGTAAACAAATTTTCCTAATCTTTCTGTTCAAGCGCCATCTAC,1.34 RPM ratio (pull-down/input)
21,GATGATTGTTCTCCCAGCTGATGAATTCCTTCTGTCGAGTAAACAAATTTTCCTAATCTTTCTGTTCAAGCGCCATCTAC,0.786 RPM ratio (pull-down/input)

row,Sequence,binding signal
1,GATGATTGTTCTCCCAGCTGATGAATTCCGATGGTCGAGTAAACAAATTTTCCTAATCTTTCTGTTCAAGCGCCATCTAC,0.796 RPM ratio (pull-down/input)
2,GATGATTGTTCTCCCAGCTGATGAATTGATTATGTCGAGTAAACAAATTTTCCTAATCTTTCTGTTCAAGCGCCATCTAC,1.31 RPM ratio (pull-down/input)
3,GATGATTGTTCTCCCAGCTGATGAATTTGGTATGTCGAGTAAACAAATTTTCCTAATCTTTCTGTTCAAGCGCCATCTAC,0.971 RPM ratio (pull-down/input)
4,GATGATTGTTCTCCCAGCTGATGAATTAGTCTGGTCGAGTAAACAAATTTTCCTAATCTTTCTGTTCAAGCGCCATCTAC,0.822 RPM ratio (pull-down/input)
5,GATGATTGTTCTCCCAGCTGATGAATTTACGTCTTCGAGTAAACAAATTTTCCTAATCTTTCTGTTCAAGCGCCATCTAC,1.3 RPM ratio (pull-down/input)
6,GATGATTGTTCTCCCAGCTGATGAATTCAAACAGTCGAGTAAACAAATTTTCCTAATCTTTCTGTTCAAGCGCCATCTAC,1.08 RPM ratio (pull-down/input)
7,GATGATTGTTCTCCCAGCTGATGAATTATAATTTTCGAGTAAACAAATTTTCCTAATCTTTCTGTTCAAGCGCCATCTAC,1.1 RPM ratio (pull-down/input)
8,GATGATTGTTCTCCCAGCTGATGAATTTACCCACTCGAGTAAACAAATTTTCCTAATCTTTCTGTTCAAGCGCCATCTAC,1.07 RPM ratio (pull-down/input)
9,GATGATTGTTCTCCCAGCTGATGAATTATTTACGTCGAGTAAACAAATTTTCCTAATCTTTCTGTTCAAGCGCCATCTAC,2.19 RPM ratio (pull-down/input)
10,GATGATTGTTCTCCCAGCTGATGAATTTTCCCAATCGAGTAAACAAATTTTCCTAATCTTTCTGTTCAAGCGCCATCTAC,1.03 RPM ratio (pull-down/input)
11,GATGATTGTTCTCCCAGCTGATGAATTAGATCGCTCGAGTAAACAAATTTTCCTAATCTTTCTGTTCAAGCGCCATCTAC,0.887 RPM ratio (pull-down/input)
12,GATGATTGTTCTCCCAGCTGATGAATTGAAGTTCTCGAGTAAACAAATTTTCCTAATCTTTCTGTTCAAGCGCCATCTAC,0.778 RPM ratio (pull-down/input)
13,GATGATTGTTCTCCCAGCTGATGAATTAGCTCGGTCGAGTAAACAAATTTTCCTAATCTTTCTGTTCAAGCGCCATCTAC,0.829 RPM ratio (pull-down/input)
14,GATGATTGTTCTCCCAGCTGATGAATTACGCTGCTCGAGTAAACAAATTTTCCTAATCTTTCTGTTCAAGCGCCATCTAC,0.954 RPM ratio (pull-down/input)
15,GATGATTGTTCTCCCAGCTGATGAATTCAACCGTTCGAGTAAACAAATTTTCCTAATCTTTCTGTTCAAGCGCCATCTAC,0.947 RPM ratio (pull-down/input)
16,GATGATTGTTCTCCCAGCTGATGAATTCGTAATTTCGAGTAAACAAATTTTCCTAATCTTTCTGTTCAAGCGCCATCTAC,1.06 RPM ratio (pull-down/input)
17,GATGATTGTTCTCCCAGCTGATGAATTCTACTCCTCGAGTAAACAAATTTTCCTAATCTTTCTGTTCAAGCGCCATCTAC,0.835 RPM ratio (pull-down/input)
18,GATGATTGTTCTCCCAGCTGATGAATTATCACTATCGAGTAAACAAATTTTCCTAATCTTTCTGTTCAAGCGCCATCTAC,1.11 RPM ratio (pull-down/input)
19,GATGATTGTTCTCCCAGCTGATGAATTTTTGCTCTCGAGTAAACAAATTTTCCTAATCTTTCTGTTCAAGCGCCATCTAC,0.935 RPM ratio (pull-down/input)
20,GATGATTGTTCTCCCAGCTGATGAATTCCACGAGTCGAGTAAACAAATTTTCCTAATCTTTCTGTTCAAGCGCCATCTAC,0.795 RPM ratio (pull-down/input)
21,GATGATTGTTCTCCCAGCTGATGAATTCCTGTACTCGAGTAAACAAATTTTCCTAATCTTTCTGTTCAAGCGCCATCTAC,0.913 RPM ratio (pull-down/input)

# — paper PMC12820563, “FoxP3 forms a head-to-head dimer in vivo and stabilizes its multimerization on adjacent microsatellites”
